# “And” between values parts separate entries of the source, which are not always exact repeats. Identical values can stand only once. Counter-ions that a name gives are not always drawn. The campaign covered roughly 5,800 compounds. About 620 (11%) showed activity.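 Rule for the calls: active = score above a cut-off or among the top three wells of a plate; in these data no inactive exceeds 0.85.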 Only a part is listed here, and it is no random draw.
# Tested on: primary human hepatic stellate cells (donor 1)
# Experiment: scaled lipid accumulation score (0 = DMSO-like, 1 = nortriptyline-like); higher = stronger HSC inactivation (lipid re-accumulation), active = hit call of the paper
# Settings: 48 h
# [1] = library stock concentration: 10 mM
# [2] = library stock concentration: 3.33 mM
# [3] = library stock concentration: 1 mM
# [4] = library stock concentration: 5.3 mM
structure (smiles),measurement,setting,value
COc1cc2c(cc1C(F)(F)F)N(C(=O)Nc1cc(F)cc(-c3cccnc3)c1)CC2,scaled lipid accumulation score,[1],inactive: 0.676
CCC(C)N(C)C(=O)c1cc2ccccc2c(-c2ccccc2Cl)n1 (stereo not given),scaled lipid accumulation score,[1],inactive: 0.007 and inactive: ≤ 0
CCCCC/C=C\C[C@@H](O)/C=C/C=C/C=C\[C@@H](O)CCCC(=O)O [Leukotriene B4],scaled lipid accumulation score,library stock concentration: 100 uM,inactive: ≤ -0.021
O=C(NCc1cccc(O)c1)Nc1nc(-c2ccncc2)cs1,scaled lipid accumulation score,[1],active: 1.02
O=S(=O)(O)NC1CCCCC1 [Cyclamic  acid],scaled lipid accumulation score,[2],inactive: ≤ 0
same,scaled lipid accumulation score,[1],inactive: 0.079
O=S(=O)(O)NC1CCCCC1,scaled lipid accumulation score,[1],inactive: 0.083
CC[C@]12CCCN3CCc4c(n(c5ccccc45)[C@](O)(C(=O)OC)C1)[C@@H]32 [Epivincamine],scaled lipid accumulation score,,inactive: ≤ 0
CCc1cn([C@H]2C[C@H](O)[C@@H](CO)O2)c(=O)[nH]c1=O [Edoxudine],scaled lipid accumulation score,library stock concentration: 7.8 mM,inactive: ≤ 0
same,scaled lipid accumulation score,[1],inactive: 0.436
CC(C)NC[C@@H](O)COc1cccc2ccccc12 [(R)-(+)-Propranolol hydrochloride],scaled lipid accumulation score,[1],inactive: 0.656
CC(C)NC[C@@H](O)COc1cccc2ccccc12 [(R)-Propranolol hydrochloride],scaled lipid accumulation score,,inactive: 0.415
CC(C)NC[C@@H](O)COc1cccc2ccccc12 [Dexpropranolol hydrochloride],scaled lipid accumulation score,library stock concentration: 6.8 mM,inactive: 0.521
same,scaled lipid accumulation score,[1],inactive: ≤ 0
OC1(c2ccc(Cl)cc2)CCN(Cc2c[nH]c3ccccc23)CC1,scaled lipid accumulation score,[1],active: 1.17
CCN(CC)CCc1nc(-c2ccccc2)no1,scaled lipid accumulation score,[1],inactive: ≤ 0
CCN(CC)CCc1nc(-c2ccccc2)no1 [Oxalamine citrate salt],scaled lipid accumulation score,,inactive: ≤ 0
CNCC(O)c1ccc(OC(=O)C(C)(C)C)c(OC(=O)C(C)(C)C)c1 (stereo not given) [Dipivefrin hydrochloride],scaled lipid accumulation score,,inactive: ≤ 0
CCOc1c2c(c(OCC)c3ccccc13)C(=O)N(c1ccc(CC(=O)NS(=O)(=O)c3ccccc3)cc1)C2,scaled lipid accumulation score,[3],inactive: ≤ 0
COc1ccc([C@]2(C#N)CC[C@@H](C(=O)O)CC2)cc1OC1CCCC1 [Cilomilast],scaled lipid accumulation score,[2],inactive: ≤ 0
same,scaled lipid accumulation score,[1],inactive: ≤ 0
"CC(C)NCC(O)c1ccc(O)c(O)c1 (single isomer, unassigned; (+)) [(+)-Isoproterenol (+)-bitartrate salt]",scaled lipid accumulation score,,inactive: ≤ 0
O=C(NCCO)c1cccc(-c2cc(Nc3ccc(OC(F)(F)F)cc3)ncn2)c1,scaled lipid accumulation score,[2],inactive: ≤ -0.009
same,scaled lipid accumulation score,[1],inactive: 0.83
COCC[n+]1c2c(n(Cc3cnccn3)c1C)C(=O)c1ccccc1C2=O [YM155 (Sepantronium Bromide)],scaled lipid accumulation score,[2],inactive: 0.529
same,scaled lipid accumulation score,[1],inactive: 0.748
Nc1ncnc2c1c(-c1ccc(Oc3ccccc3)cc1)cn2C1CCCC1,scaled lipid accumulation score,[1],inactive: ≤ -0.07
COCCCCCCCCCCCC(=O)O [12-Methoxydodecanoic acid],scaled lipid accumulation score,[3],inactive: ≤ -0.021
C[C@H]1C[C@@H]2[C@H]([C@@H](O)C[C@@]3(C)[C@H]2CC[C@]3(O)C(=O)CO)[C@@]2(C)C=CC(=O)C=C12,scaled lipid accumulation score,[1],inactive: ≤ 0
C[C@H]1C[C@@H]2[C@H]([C@@H](O)C[C@@]3(C)[C@H]2CC[C@]3(O)C(=O)CO)[C@@]2(C)C=CC(=O)C=C12 [Methylprednisolone],scaled lipid accumulation score,[2],inactive: ≤ 0
same,scaled lipid accumulation score,[4],inactive: 0.003 and inactive: ≤ -0.001
same,scaled lipid accumulation score,[1],inactive: ≤ 0
"C[C@H]1C[C@@H]2[C@H]([C@@H](O)C[C@@]3(C)[C@H]2CC[C@]3(O)C(=O)CO)[C@@]2(C)C=CC(=O)C=C12 [Methylprednisolone, 6-alpha]",scaled lipid accumulation score,,inactive: ≤ 0
CCCNCC(O)COc1ccccc1C(=O)CCc1ccccc1 (stereo not given) [Propafenone],scaled lipid accumulation score,library stock concentration: 5.9 mM,inactive: 0.566
CCCNCC(O)COc1ccccc1C(=O)CCc1ccccc1 (stereo not given) [Rythmol],scaled lipid accumulation score,[1],inactive: 0.811
CCCNCC(O)COc1ccccc1C(=O)CCc1ccccc1 (stereo not given) [Propafenone hydrochloride],scaled lipid accumulation score,,inactive: 0.742
same,scaled lipid accumulation score,[4],inactive: 0.429
same,scaled lipid accumulation score,[1],inactive: 0.365
CCCNCC(O)COc1ccccc1C(=O)CCc1ccccc1 (stereo not given) [Propafenone HCl],scaled lipid accumulation score,[2],inactive: 0.241
same,scaled lipid accumulation score,[1],inactive: 0.684
O=C1c2ccc(Nc3ccc(F)cc3F)cc2CCc2ccc(OC[C@H](O)CO)cc21 [Skepinone-L],scaled lipid accumulation score,[2],inactive: 0.058
same,scaled lipid accumulation score,[1],inactive: 0.357
CCCCCCCCCCCCCCCCCC(=O)OC(CC(=O)O)C[N+](C)(C)C (racemic) [DL-Stearoylcarnitine chloride],scaled lipid accumulation score,[1],inactive: 0.037
O=[N+]([O-])c1cccc2cn[nH]c12,scaled lipid accumulation score,[1],inactive: ≤ 0
O=[N+]([O-])c1cccc2cn[nH]c12 [7-Nitroindazole],scaled lipid accumulation score,[1],inactive: ≤ -0.055 and inactive: ≤ 0
COc1ccccc1OCC(O)CN1CCN(CC(=O)Nc2c(C)cccc2C)CC1 (stereo not given) [Ranolazine dihydrochloride],scaled lipid accumulation score,[1],inactive: ≤ 0
COc1ccccc1OCC(O)CN1CCN(CC(=O)Nc2c(C)cccc2C)CC1 (stereo not given) [Ranolazine],scaled lipid accumulation score,,inactive: ≤ 0
same,scaled lipid accumulation score,[2],inactive: ≤ 0
same,scaled lipid accumulation score,library stock concentration: 4.7 mM,inactive: ≤ 0
same,scaled lipid accumulation score,[1],inactive: ≤ 0 and inactive: ≤ -0.027
